Test results published in PubChem BioAssay (NCI).
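Tested at 5 concentrations; 48 h exposure; 96-well plates; endpoints linearly interpolated, else capped at highest concentration. Abbreviation: GI50, concentration required for 50% inhibition of growth. TGI marks complete inhibition of growth.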

System: NCI-H322M lung
Assay: inhibition of tumour cell growth, NCI panel, 48 h

Compound	GI50 [µM]	TGI [µM]
Cc1ccc(C(=O)CSc2nnc(-c3c[nH]c4ccccc34)n2-c2ccccc2)cc1	16.3	55.4
COc1ccc(C(=O)/C=C/c2ccc(OCc3ccccc3)c(OC)c2)cc1OC	5.17	> 100
